Assay results as given in PMC4336329 (PLoS ONE, 2015).
The campaign covered roughly 310,000 compounds. About 14,000 (4.5%) showed an effect of 50% or more. Effects have a minus sign here. This is one part of the list.

target: human ether-à-go-go-related gene (hERG) potassium channel (human, UniProt Q12809); assay: primary screen, population patch clamp on CHO cells stably expressing hERG
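Also: peak tail current of the secondary pulse compared with the same well before compound.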

Sequence of human ether-à-go-go-related gene (hERG) potassium channel (Q12809 whole entry, looked up): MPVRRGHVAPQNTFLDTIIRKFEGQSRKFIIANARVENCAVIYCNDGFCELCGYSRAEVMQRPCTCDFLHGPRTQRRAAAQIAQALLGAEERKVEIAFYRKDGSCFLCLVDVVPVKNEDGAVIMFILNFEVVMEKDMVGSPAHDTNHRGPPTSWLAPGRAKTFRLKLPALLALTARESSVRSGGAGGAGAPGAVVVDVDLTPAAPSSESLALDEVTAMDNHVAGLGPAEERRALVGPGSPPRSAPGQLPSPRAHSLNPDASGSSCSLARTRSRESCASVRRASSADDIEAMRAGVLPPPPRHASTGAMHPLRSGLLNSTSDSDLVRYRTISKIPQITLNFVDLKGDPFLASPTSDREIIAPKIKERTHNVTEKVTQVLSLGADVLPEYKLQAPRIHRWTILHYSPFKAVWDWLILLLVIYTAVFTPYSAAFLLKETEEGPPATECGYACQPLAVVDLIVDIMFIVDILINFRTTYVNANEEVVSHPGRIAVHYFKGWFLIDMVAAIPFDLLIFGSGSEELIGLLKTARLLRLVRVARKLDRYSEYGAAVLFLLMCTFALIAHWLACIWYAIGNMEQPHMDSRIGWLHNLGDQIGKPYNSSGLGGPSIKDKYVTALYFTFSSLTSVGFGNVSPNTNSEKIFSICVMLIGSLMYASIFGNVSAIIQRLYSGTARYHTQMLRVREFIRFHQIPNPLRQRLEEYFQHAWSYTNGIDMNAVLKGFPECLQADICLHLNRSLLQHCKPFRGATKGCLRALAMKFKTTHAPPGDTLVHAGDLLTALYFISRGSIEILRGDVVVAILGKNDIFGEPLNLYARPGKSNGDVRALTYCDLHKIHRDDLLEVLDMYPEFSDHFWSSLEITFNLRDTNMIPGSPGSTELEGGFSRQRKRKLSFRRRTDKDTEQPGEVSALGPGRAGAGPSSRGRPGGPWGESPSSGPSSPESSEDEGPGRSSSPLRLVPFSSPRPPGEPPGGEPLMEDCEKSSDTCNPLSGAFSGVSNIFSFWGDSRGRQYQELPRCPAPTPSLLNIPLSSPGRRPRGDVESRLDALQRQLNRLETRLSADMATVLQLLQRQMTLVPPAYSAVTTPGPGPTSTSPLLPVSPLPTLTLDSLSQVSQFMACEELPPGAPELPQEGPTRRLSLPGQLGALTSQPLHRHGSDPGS

**Q.** For `CNC(=O)c1cc(Oc2ccc(NC(=O)Nc3ccc(Cl)c(C(F)(F)F)c3)cc2)ccn1.Cc1ccc(S(=O)(=O)O)cc1`, which “hERG current change (%, negative = inhibition) at 10uM” value is on record?
**A.** 11%

**Q.** For `COc1cc2[nH]c(=S)n(-c3ccccc3)c(=O)c2cc1OC`, which “hERG current change (%, negative = inhibition) at 10uM” value is on record?
**A.** 14.4%

**Q.** Which “hERG current change (%, negative = inhibition) at 10uM” value does the source give for `CCOc1ccccc1CN1C(=O)NC2(CCCCCC2)C1=O` here?
**A.** 9.32%

**Q.** How did the “hERG current change (%, negative = inhibition) at 10uM” value turn out when `O=C(NCC(c1cccs1)N1CCOCC1)c1ccc(Cl)cc1` (centres unmarked) was run?
**A.** -3.21%

**Q.** `O=C(Nc1ccc(NC(=O)c2cccnc2Cl)cc1)c1cccc(Cl)c1` was tested. Which “hERG current change (%, negative = inhibition) at 10uM” value did it give?
**A.** 15.1%

**Q.** `CC(C)NC(=S)NCc1cccnc1` was tested. Which “hERG current change (%, negative = inhibition) at 10uM” value did it give?
**A.** 9.15%

**Q.** `CCN(CC)CCOC(=O)c1ccc(NC(=O)C2(c3ccccc3)CCCC2)cc1.Cl` was tested. Which “hERG current change (%, negative = inhibition) at 10uM” value did it give?
**A.** -34.8%

**Q.** For `COc1ccc(Cl)cc1C(=O)Nc1ccc(OCC(=O)N2CCOCC2)cc1`, which “hERG current change (%, negative = inhibition) at 10uM” value is on record?
**A.** 11.9%

**Q.** How did the “hERG current change (%, negative = inhibition) at 10uM” value turn out when `Cc1ccc(S(=O)(=O)n2cnc3cc([N+](=O)[O-])ccc32)c(C)c1C` was run?
**A.** 13.1%

**Q.** `CCN1CCN(S(=O)(=O)c2ccc3ccccc3c2)CC1` was tested. Which “hERG current change (%, negative = inhibition) at 10uM” value did it give?
**A.** -2.68%

**Q.** With `Cc1ccccc1C(=O)N1CCC(C(=O)Nc2ccccc2N2CCCC2)CC1` as the compound, how does the “hERG current change (%, negative = inhibition) at 10uM” value read?
**A.** -0.721%

**Q.** With `Cl.N=c1sccn1Cc1ccccc1F` as the compound, how does the “hERG current change (%, negative = inhibition) at 10uM” value read?
**A.** 17.7%

**Q.** For `CC(=O)N1CCN(C(=O)c2cc(S(=O)(=O)Nc3ccc(S(C)(=O)=O)cc3)ccc2Cl)CC1`, which “hERG current change (%, negative = inhibition) at 10uM” value is on record?
**A.** 10.4%

**Q.** With `CCn1c(SCC(=O)c2cc(C)n(-c3ccc(C(=O)OC)cc3)c2C)nnc1-c1cccnc1` as the compound, how does the “hERG current change (%, negative = inhibition) at 10uM” value read?
**A.** -3.95%

**Q.** Which “hERG current change (%, negative = inhibition) at 10uM” value does the source give for `Cc1ccc(C(=O)NC2CCN(C(=O)Nc3ccccc3Cl)CC2)cc1` here?
**A.** -3.16%

**Q.** With `Cc1cccc(CN2C(=O)N/C(=C/c3ccc(C)s3)C2=O)c1` as the compound, how does the “hERG current change (%, negative = inhibition) at 10uM” value read?
**A.** 3.31%

**Q.** For `COc1ccc(/C=C2\SC(=S)N(N3C(=O)CCC3=O)C2=O)cc1O`, which “hERG current change (%, negative = inhibition) at 10uM” value is on record?
**A.** 7.43%

**Q.** How did the “hERG current change (%, negative = inhibition) at 10uM” value turn out when `O=C(c1sc2ccccc2c1Cl)N(Cc1ccccc1Cl)C1CCS(=O)(=O)C1` (centres unmarked) was run?
**A.** -12.3%

**Q.** For `Cc1cccc(Cc2nnc(CCC(=O)NCc3cn4ccccc4n3)o2)c1`, which “hERG current change (%, negative = inhibition) at 10uM” value is on record?
**A.** -4.88%

**Q.** For `C=CCN1C(=NC(=O)COc2ccccc2)SC2CS(=O)(=O)CC21` (centres unmarked), which “hERG current change (%, negative = inhibition) at 10uM” value is on record?
**A.** 8.17%

**Q.** How did the “hERG current change (%, negative = inhibition) at 10uM” value turn out when `Cc1cccc2sc(NC(=O)CSCc3ccccc3)nc12` was run?
**A.** 2.45%

**Q.** Which “hERG current change (%, negative = inhibition) at 10uM” value does the source give for `COc1ccc(N(CC(=O)N/N=C/c2cc(Br)c(C)o2)S(=O)(=O)c2ccc(NC(C)=O)cc2)cc1` here?
**A.** 14.3%

**Q.** With `CCCCc1nc(SCc2ccc([N+](=O)[O-])cc2)n[nH]1` as the compound, how does the “hERG current change (%, negative = inhibition) at 10uM” value read?
**A.** -15.4%

**Q.** How did the “hERG current change (%, negative = inhibition) at 10uM” value turn out when `C[C@@H]1CCC[C@]2(O[C@H](CCO)C[C@@H](O)[C@@H]2O)O1` was run?
**A.** 7.2%

**Q.** For `NC(=O)CN1C(=O)C2CCCCN2C(=O)c2ccccc21.O=C(O)C(=O)O` (centres unmarked), which “hERG current change (%, negative = inhibition) at 10uM” value is on record?
**A.** 13.8%

**Q.** `Cn1c(NC(=O)c2ccccc2)c(-c2ccccn2)c(=O)c2ccccc21` was tested. Which “hERG current change (%, negative = inhibition) at 10uM” value did it give?
**A.** 10.7%

**Q.** `O=S1(=O)N=C(N/N=C/c2cccs2)c2ccccc21` was tested. Which “hERG current change (%, negative = inhibition) at 10uM” value did it give?
**A.** 24.8%

**Q.** With `O=C(OCc1ccccn1)c1ccc(COc2ccc3ccccc3c2)o1` as the compound, how does the “hERG current change (%, negative = inhibition) at 10uM” value read?
**A.** 16%

**Q.** `O=C(COC(=O)C12CC3CC(CC(Br)(C3)C1)C2)Nc1ccc2[nH]c(=O)[nH]c2c1` was tested. Which “hERG current change (%, negative = inhibition) at 10uM” value did it give?
**A.** -24.4%

**Q.** How did the “hERG current change (%, negative = inhibition) at 10uM” value turn out when `COCC1CCN(C(=O)c2cc(COc3ccc(-n4cncn4)cc3)on2)C1` (centres unmarked) was run?
**A.** -13%

**Q.** With `CC1(C)CC(=O)C2=C(C1)NC1=C(C(=O)c3ccccc31)C2c1ccccc1` (centres unmarked) as the compound, how does the “hERG current change (%, negative = inhibition) at 10uM” value read?
**A.** -12.5%

**Q.** For `CCCCN1C(=O)C(O)(CC(=O)c2ccco2)c2cc(Br)ccc21` (centres unmarked), which “hERG current change (%, negative = inhibition) at 10uM” value is on record?
**A.** -7.03%

**Q.** Which “hERG current change (%, negative = inhibition) at 10uM” value does the source give for `COCOc1ccc(-c2cc(=O)c3c(O)cc(OCOC)cc3o2)cc1` here?
**A.** 2%

**Q.** For `Cc1cc(C)nc(SCC(=O)N/N=C/c2cccnc2)n1`, which “hERG current change (%, negative = inhibition) at 10uM” value is on record?
**A.** 0.457%

**Q.** How did the “hERG current change (%, negative = inhibition) at 10uM” value turn out when `Cc1ccc(NC(=O)CSc2nnc(-c3ccoc3C)n2CCCN(C)C)cc1Cl` was run?
**A.** -69.3%

**Q.** For `CSc1nc(-c2ccco2)nn1C(=O)c1cccs1`, which “hERG current change (%, negative = inhibition) at 10uM” value is on record?
**A.** 3.47%

**Q.** Which “hERG current change (%, negative = inhibition) at 10uM” value does the source give for `COC(=O)C1=C(C)C(c2ccc(OC)cc2OC)NC(=O)N1` (centres unmarked) here?
**A.** 13.1%

**Q.** For `COc1cc2ccccc2cc1C(=O)Nc1sc2c(c1C(N)=O)CCN(C(C)C)C2.Cl`, which “hERG current change (%, negative = inhibition) at 10uM” value is on record?
**A.** -19.3%

**Q.** With `COc1ccc(OCC(=O)N2CCN(c3cccc(C(F)(F)F)c3)CC2)cc1` as the compound, how does the “hERG current change (%, negative = inhibition) at 10uM” value read?
**A.** -42.6%

**Q.** `Cc1n[nH]c(=O)c2ccccc12` was tested. Which “hERG current change (%, negative = inhibition) at 10uM” value did it give?
**A.** 19%

**Q.** Which “hERG current change (%, negative = inhibition) at 10uM” value does the source give for `C=CCNC(=S)Nc1c(N)n(C)c(=O)n(C)c1=O` here?
**A.** 9.2%

**Q.** `COc1ccc(S(=O)(=O)N2CCCC2CNC(=O)C(=O)NCc2ccc3c(c2)OCO3)cc1` (centres unmarked) was tested. Which “hERG current change (%, negative = inhibition) at 10uM” value did it give?
**A.** -21.9%

**Q.** Which “hERG current change (%, negative = inhibition) at 10uM” value does the source give for `COc1cc2ncnc(NCc3ccco3)c2cc1OC` here?
**A.** -4.53%

**Q.** `Clc1ccc(OCCn2cnc3ccccc32)c(Cl)c1` was tested. Which “hERG current change (%, negative = inhibition) at 10uM” value did it give?
**A.** -14.8%

**Q.** For `O=C(Nc1cccc(S(=O)(=O)NC2=NCCCCC2)c1)c1cc(-c2ccncc2)nc2ccccc12`, which “hERG current change (%, negative = inhibition) at 10uM” value is on record?
**A.** 3.8%

**Q.** Which “hERG current change (%, negative = inhibition) at 10uM” value does the source give for `CCOC(=O)CC1=C(C(=O)OCC)C2(C(=O)N1CC(=O)OC)C(C#N)=C(N)Oc1ccccc12` (centres unmarked) here?
**A.** 13.5%

**Q.** With `Nc1cnc(-c2ccccc2)nc1Cl` as the compound, how does the “hERG current change (%, negative = inhibition) at 10uM” value read?
**A.** 11.1%

**Q.** How did the “hERG current change (%, negative = inhibition) at 10uM” value turn out when `O=C(COc1ccc(Cl)cc1)N1CCN(S(=O)(=O)c2ccc(Cl)cc2)CC1` was run?
**A.** -11.9%

**Q.** With `Cc1ccccc1CSc1nn2c(=O)c(C)nnc2s1` as the compound, how does the “hERG current change (%, negative = inhibition) at 10uM” value read?
**A.** 0.612%

**Q.** With `Cc1ccc(NC(=O)CN(C)C(=O)CSc2ccc3c(c2)OCCO3)cc1` as the compound, how does the “hERG current change (%, negative = inhibition) at 10uM” value read?
**A.** -15.9%

**Q.** With `O=C(COc1ccccc1)NCC(c1cccs1)N1CCOCC1` (centres unmarked) as the compound, how does the “hERG current change (%, negative = inhibition) at 10uM” value read?
**A.** -16.6%

**Q.** Which “hERG current change (%, negative = inhibition) at 10uM” value does the source give for `Cc1ccc2nsnc2c1S(=O)(=O)NC1CC1` here?
**A.** -13.6%

**Q.** `COc1ccc(C=O)cc1CSc1ncccc1C(=O)O` was tested. Which “hERG current change (%, negative = inhibition) at 10uM” value did it give?
**A.** 8.88%

**Q.** Which “hERG current change (%, negative = inhibition) at 10uM” value does the source give for `O=C1C(Cl)=C(Nc2cccc(O)c2)C(=O)N1Cc1ccccc1` here?
**A.** -62.4%

**Q.** `Fc1ccc2[nH]c3c(N4CCSCC4)ncnc3c2c1` was tested. Which “hERG current change (%, negative = inhibition) at 10uM” value did it give?
**A.** -1.46%

**Q.** For `COc1ccc(CNC(=O)c2cc(C)nn2-c2ccccc2)cc1`, which “hERG current change (%, negative = inhibition) at 10uM” value is on record?
**A.** -13.9%
